According to patent US20160326231A1 (FUDAN UNIVERSITY SHANGHAI CANCER CENTER, published 2016):

Assays:
Experiment in all cases: SPR, Biacore T200, His-tagged fusion captured on NTA chip, C3 fragment as analyte
iC3b = biological target: T1, iC3b (UniProt P01024 23-667; P01024 749-1303; P01024 1321-1663)
T1 construct: domain: iC3b; Bought protein
Text: (§1) Surface plasmon resonance (SPR) is a technology used for analyzing the biological macromolecule interactions, which can qualitatively judge whether there is interaction between two molecules or to compare the strength of the interactions between a molecule with a variety of molecules. It can also quantitatively determine the affinity parameter (equilibrium constant) and dynamics parameter (rate constant), even thermodynamic parameters (reaction enthalpies) in real time. This technology utilizes the principle of physical optics. In the study of the interaction between two molecules, a molecule is fixed on the surface of the sensor chip, the solution of another kind of molecule is flowed through the surface of the chip. The combination of the two molecules will change the refractive index of the sensor chip surface, which can be used to detect the interaction between the two molecules. The kinetics analysis and affinity determination of the complement inhibitor CRIg-fH with C3 enzymolysis products are performed by using BlAcore T200 based on the principle of SPR. The Series S Sensor NTA chip is chosen for the CRIg-fHHi label. The experiment method is as follows:
(§2) (3) ligand coupling: the CRIg-fH fusion protein is diluted to 0.2 μg/ml ligand solution by HBS-N running buffer, inject the ligand solution once, at 25° C., the flow rate is 30 μl/min, the sustain time is 60 sec, the stability time is 30 sec.
(§3) (8) the kinetic curve is simulated and the kinetic parameters (including association constant Ka, dissociation constant Kd and equilibrium dissociation constant KD) are determined by BIAcore T200 v2.02 software.

C3b = biological target: T2, C3b (UniProt P01024 23-667; P01024 partial chain)
T2 construct: domain: C3b; Bought protein; also called C3 enzymolysis product
Text: as §1, §2, §3

C3c = biological target: T3, C3c (UniProt P01024 23-667; P01024 749-954; P01024 1321-1663, limits assumed)
T3 construct: domain: C3c; Bought protein
Text: as §1, §2, §3

Chain of C3c (P01024 23-667 limits assumed, chain 1 of 3): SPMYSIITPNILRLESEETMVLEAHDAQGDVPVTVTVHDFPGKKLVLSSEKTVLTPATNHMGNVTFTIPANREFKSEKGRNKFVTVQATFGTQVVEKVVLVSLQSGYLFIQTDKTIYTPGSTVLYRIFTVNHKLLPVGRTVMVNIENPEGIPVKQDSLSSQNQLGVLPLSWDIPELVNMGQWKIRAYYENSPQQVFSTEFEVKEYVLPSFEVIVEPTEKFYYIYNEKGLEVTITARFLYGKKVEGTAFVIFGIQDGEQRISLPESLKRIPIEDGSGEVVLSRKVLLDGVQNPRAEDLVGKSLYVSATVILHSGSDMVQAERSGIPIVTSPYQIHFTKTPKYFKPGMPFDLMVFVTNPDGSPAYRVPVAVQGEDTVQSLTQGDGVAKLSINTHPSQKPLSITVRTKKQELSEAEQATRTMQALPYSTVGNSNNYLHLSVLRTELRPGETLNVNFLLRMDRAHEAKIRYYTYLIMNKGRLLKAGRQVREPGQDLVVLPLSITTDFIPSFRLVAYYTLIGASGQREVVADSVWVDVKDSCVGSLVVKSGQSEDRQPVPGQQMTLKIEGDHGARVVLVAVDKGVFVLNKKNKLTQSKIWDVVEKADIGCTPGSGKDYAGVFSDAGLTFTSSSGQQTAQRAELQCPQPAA
Chain of C3c (P01024 749-954 limits assumed, chain 2 of 3): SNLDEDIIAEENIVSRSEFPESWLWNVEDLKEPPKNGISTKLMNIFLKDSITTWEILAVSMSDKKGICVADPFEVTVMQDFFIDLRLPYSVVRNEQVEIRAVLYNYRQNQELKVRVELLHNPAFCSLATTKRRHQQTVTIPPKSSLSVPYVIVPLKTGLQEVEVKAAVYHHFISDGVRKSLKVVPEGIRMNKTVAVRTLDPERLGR
Chain of C3c (P01024 1321-1663 limits assumed, chain 3 of 3): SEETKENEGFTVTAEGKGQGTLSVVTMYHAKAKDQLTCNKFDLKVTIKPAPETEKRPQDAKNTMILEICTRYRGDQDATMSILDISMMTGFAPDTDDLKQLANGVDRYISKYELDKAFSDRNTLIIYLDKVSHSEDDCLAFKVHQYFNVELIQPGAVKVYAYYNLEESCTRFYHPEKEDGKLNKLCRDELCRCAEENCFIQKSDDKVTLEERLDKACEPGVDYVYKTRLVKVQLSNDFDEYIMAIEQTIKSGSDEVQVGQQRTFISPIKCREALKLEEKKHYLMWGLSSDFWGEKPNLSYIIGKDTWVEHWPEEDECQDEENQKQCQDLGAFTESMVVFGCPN
Chain of C3b (P01024 23-667 limits assumed, chain 1 of 2): as the sequence (P01024 23-667 limits assumed, chain 1 of 3) above
Chain of C3b (P01024 749-1663 limits assumed, chain 2 of 2): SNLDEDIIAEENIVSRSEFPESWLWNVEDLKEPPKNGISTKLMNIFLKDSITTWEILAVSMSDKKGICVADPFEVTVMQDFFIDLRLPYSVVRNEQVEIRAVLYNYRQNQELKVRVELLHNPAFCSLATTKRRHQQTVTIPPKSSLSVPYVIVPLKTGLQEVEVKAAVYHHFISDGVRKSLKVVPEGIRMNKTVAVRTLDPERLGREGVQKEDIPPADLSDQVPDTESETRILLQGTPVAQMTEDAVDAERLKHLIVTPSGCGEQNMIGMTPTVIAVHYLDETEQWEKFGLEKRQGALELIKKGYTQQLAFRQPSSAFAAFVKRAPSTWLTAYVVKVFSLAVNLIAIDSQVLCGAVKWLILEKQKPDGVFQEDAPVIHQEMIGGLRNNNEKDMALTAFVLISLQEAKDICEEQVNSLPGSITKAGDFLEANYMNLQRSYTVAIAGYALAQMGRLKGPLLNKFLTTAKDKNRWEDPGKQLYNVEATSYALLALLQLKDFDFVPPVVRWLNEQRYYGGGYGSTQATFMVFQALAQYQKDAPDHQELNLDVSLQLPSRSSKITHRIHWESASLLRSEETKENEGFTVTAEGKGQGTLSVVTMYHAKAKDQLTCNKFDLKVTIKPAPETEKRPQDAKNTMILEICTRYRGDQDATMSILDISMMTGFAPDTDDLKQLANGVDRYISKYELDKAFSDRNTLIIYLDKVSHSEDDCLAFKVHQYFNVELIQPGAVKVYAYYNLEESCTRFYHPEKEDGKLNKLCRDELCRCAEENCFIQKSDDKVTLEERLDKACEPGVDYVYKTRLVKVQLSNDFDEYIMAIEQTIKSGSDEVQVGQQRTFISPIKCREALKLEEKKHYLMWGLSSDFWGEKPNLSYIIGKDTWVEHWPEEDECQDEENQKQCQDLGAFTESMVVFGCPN
Chain of iC3b (P01024 23-667 limits assumed, chain 1 of 3): as the sequence (P01024 23-667 limits assumed, chain 1 of 3) above
Chain of iC3b (P01024 749-1303 limits assumed, chain 2 of 3): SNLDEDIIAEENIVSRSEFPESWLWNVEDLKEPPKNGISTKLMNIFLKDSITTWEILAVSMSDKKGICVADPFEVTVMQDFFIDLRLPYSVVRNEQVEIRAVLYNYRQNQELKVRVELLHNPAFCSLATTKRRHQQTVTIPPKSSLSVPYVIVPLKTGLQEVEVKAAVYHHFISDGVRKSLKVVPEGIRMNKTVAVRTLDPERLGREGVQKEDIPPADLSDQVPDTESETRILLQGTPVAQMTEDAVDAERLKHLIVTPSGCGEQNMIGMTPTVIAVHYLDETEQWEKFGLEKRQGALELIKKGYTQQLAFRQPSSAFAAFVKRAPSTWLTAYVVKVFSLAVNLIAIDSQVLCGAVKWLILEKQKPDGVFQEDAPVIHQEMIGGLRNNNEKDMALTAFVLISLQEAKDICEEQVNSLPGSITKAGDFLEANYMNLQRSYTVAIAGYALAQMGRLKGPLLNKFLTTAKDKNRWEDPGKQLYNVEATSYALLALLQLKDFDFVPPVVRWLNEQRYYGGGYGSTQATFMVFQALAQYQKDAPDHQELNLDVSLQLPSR
Chain of iC3b (P01024 1321-1663 limits assumed, chain 3 of 3): as the sequence (P01024 1321-1663 limits assumed, chain 3 of 3) above

Kd (iC3b): 3510 nM
koff (iC3b): 0.00362 s⁻¹
Kd (C3b): 234 nM
koff (C3b): 0.00375 s⁻¹
kon (C3b): 16500 M⁻¹ s⁻¹
Kd (C3c): 2490 nM
koff (C3c): 0.00615 s⁻¹
kon (C3c): 2480 M⁻¹ s⁻¹
B1: CRIg-L-fH (other)
chain: [letters of about 120 residues omitted]SGGGGSGGGGSGGGGEDCNELPPRRNTEILTGSWSDQTYPEGTQAIYKCRPGYRSLGNVIMVCRKGEWVALNPLRKCQKRPCGHPGDTPFGTFTLTGGNVFEYGVKAVYTCNEGYQLLGEINYRECDTDGWTNDIPICEVVKCLPVTAPENGKIVSSAMEPDREYHFGQAVRFVCNSGYKIEGDEEMHCSDDGFWSKEKPKCVEISCKSPDVINGSPISQKIIYKENERFQYKCNMGYEYSERGDAVCTESGWRPLPSCEEKSCDNPYIPNGDYSPLRIKHRTGDEITYQCRNGFYPATRGNTAKCTSTGWIPAPRCTLK
notes: Expressed from pHLsec-CRIg-L-fH in 293FT cells and secreted; also called CRIg-(Gly4Ser)3-fH; recombinant protein CRIg-L-fH; not shown: His tag implied by Ni2+ column purification, NTA chip capture and anti-His detection
